Drawing on PubChem BioAssay AID488969 (Vanderbilt High Throughput Screening Facility, 2010), this text covers z-score for 68 compounds.

Each structure is given as a SMILES string. Over roughly 110,000 compounds, “z-score” has its median near -0.1; the highest 2% begin near 2. The list shows a part of the results.

For this test, the target named is Metabotropic glutamate receptor 8 (Rattus norvegicus) (UniProt P70579). In words: mGluR8 Gi/Go-coupled signaling modulation – cell-based, rat, thallium flux, HTS, primary screen (AID 488969). As to conditions: HEK293 rat mGluR8, GIRK (G protein-gated inwardly rectifying potassium channel) thallium flux, FluoZin2; at 10 µM; stronger effect = higher value; submaximal glutamate (EC20) added with thallium.
Sequence of UniProt P70579 (P70579 whole entry, looked up): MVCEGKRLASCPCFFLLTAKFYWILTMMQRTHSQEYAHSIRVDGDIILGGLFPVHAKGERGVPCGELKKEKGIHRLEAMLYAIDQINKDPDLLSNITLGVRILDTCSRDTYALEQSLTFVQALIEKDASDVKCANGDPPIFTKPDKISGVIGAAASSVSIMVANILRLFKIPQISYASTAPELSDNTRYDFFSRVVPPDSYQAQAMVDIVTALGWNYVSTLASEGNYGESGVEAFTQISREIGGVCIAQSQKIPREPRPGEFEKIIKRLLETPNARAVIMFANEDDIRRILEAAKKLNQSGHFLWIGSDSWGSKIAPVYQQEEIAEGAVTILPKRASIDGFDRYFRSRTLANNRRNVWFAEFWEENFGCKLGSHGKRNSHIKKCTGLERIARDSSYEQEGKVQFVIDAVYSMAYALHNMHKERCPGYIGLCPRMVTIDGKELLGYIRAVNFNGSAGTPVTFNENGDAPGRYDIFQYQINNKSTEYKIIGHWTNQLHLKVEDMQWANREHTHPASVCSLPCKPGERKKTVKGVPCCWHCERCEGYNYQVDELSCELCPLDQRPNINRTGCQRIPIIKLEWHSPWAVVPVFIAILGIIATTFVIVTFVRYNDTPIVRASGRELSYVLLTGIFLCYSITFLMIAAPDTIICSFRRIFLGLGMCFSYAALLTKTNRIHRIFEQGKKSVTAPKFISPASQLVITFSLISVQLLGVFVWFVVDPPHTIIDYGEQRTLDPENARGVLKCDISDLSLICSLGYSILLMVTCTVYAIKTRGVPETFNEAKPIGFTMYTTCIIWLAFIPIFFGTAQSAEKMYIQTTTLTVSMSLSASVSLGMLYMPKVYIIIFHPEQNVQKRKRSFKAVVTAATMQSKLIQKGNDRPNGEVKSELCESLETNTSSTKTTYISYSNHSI
`COCCn1c(SCC(=O)c2c(-c3ccccc3)n(C)c3ccccc23)nnc1-c1ccncc1` came in with a z-score of -0.708.

`COc1ccc(C/C(N)=N/OC(=O)C(c2ccccc2)c2ccccc2)cc1OC`: the z-score is -0.181.

With `Cc1ccc(N2CC(C)Cn3c2nc2c3c(=O)n(CC(=O)OCc3ccccc3)c(=O)n2C)cc1C` (stereo not drawn), the z-score is 0.137.

In the case of `CCC(C)n1c(/C=C/c2ccccc2)nc2ccccc21` (stereo not drawn), the z-score is -0.242. The result for `COc1ccc(NC(=O)CSc2ccc3c4c(cccc24)C(=O)c2ccccc2-3)cc1` reads -0.0631.

The compound `NC(=NC(=O)c1ccccc1)N1CCOCC1` registered a z-score of -0.137.

In the case of `COc1ccc(CC(=O)Nc2c3c(nn2-c2cccc(Cl)c2)CS(=O)C3)cc1` (stereo not drawn), the z-score is -1.01. The compound `CC(=O)Nc1cccc(OCC(O)Cn2cnc3ccccc32)c1` (stereo not drawn) gave a z-score of 0.023. The result for `CCOC(=O)c1nnn(CC(=O)Nc2cccc(OC)c2)c1C(=O)OCC` reads -0.172; that for `Cc1ccc(NC(=O)CSC2=C(C#N)C(c3ccco3)CC(=O)N2)cc1` (stereo not drawn), -0.0289. For `CC(NC(=S)Nc1c(Cl)cccc1OC(F)F)C(C)(C)C` (stereo not drawn), the z-score is -0.253. The result for `O=C(NC(CO)Cc1ccc([N+](=O)[O-])cc1)C(Cl)Cl` (stereo not drawn) reads -0.606; that for `Nc1nonc1-c1noc(CCCN2C(=O)c3ccccc3C2=O)n1`, 0.166; that for `COc1ccccc1NS(=O)(=O)CC12CCC(CC1=O)C2(C)C` (stereo not drawn), 0.651. On to `COc1ccc(C(=O)/C=C/c2ccc(OC(=O)c3cc(OC)c(OC)c(OC)c3)cc2)cc1`, for which the z-score was -2.1. The compound `CCn1c(SCC(=O)N2CCc3ccccc32)nnc1-c1c[nH]c2ccccc12` registered a z-score of 0.361. As for `O=C(CN(Cc1ccccc1)C1=NCCS1)c1ccc(Cl)cc1`, the z-score is 0.804. The result for `O=C(NCc1ccccn1)c1ccc(CNS(=O)(=O)c2ccc(F)cc2)cc1` reads -0.111; that for `CCCCN(CCCC)C(=O)c1cc(Cl)ccc1[N+](=O)[O-]`, -0.418; that for `CCOC(=O)C(NC(=O)c1ccccc1Cl)(Nc1ccc(C(F)(F)F)cc1)C(F)(F)F` (stereo not drawn), -1.39.

`Cc1ccc(C(=O)N2CC(=O)Nc3ccc(F)cc3C2c2ccccc2)cc1[N+](=O)[O-]` (stereo not drawn) displayed a z-score of -0.229. The compound `O=C(COc1ccccc1)N/N=C/c1ccc(O[C@@H]2O[C@H](CO)[C@@H](O)[C@H](O)[C@H]2O)cc1` showed a z-score of 0.0169.

For `CC1C/C(=N/NC(=O)c2cccc(F)c2)c2ccc(O)cc2C1` (stereo not drawn), the z-score was -0.137.

The compound `COc1ccc(C2C(C#N)=C(N)OC3=C2C(=O)CC(C)(C)C3)cc1Cn1nc(C)c([N+](=O)[O-])c1C` (stereo not drawn) showed a z-score of -0.191.

For `O=C(COC(=O)C1Cc2ccccc2CN1C(=O)c1ccccc1)Nc1ccc(SC(F)F)cc1` (stereo not drawn), the z-score is -0.205. In turn, `O=C(/C=C/c1ccc(Cl)cc1)NCc1ccco1` displayed a z-score of -0.0471. `Cc1ccc(OCC(=O)N2CCc3ccccc32)cc1`: the z-score is -0.113. The compound `CC(C)(C)OC(=O)N/N=C\c1ccc(OC(=O)c2cccs2)cc1` had a z-score of -0.465. As to `CCCOCC1CC2(CC(C)(c3csc(N)n3)OC2=O)C(=O)O1` (stereo not drawn), the z-score came to 0.21. In the case of `CCCOn1c(-n2nc(C)cc2C)nc2ccccc2c1=O`, the z-score came out at 0.0266. As to `CC1CCN(CC(=O)Nc2cccc(C(=O)Nc3cccc(C(F)(F)F)c3)c2)CC1`, the z-score worked out at 0.153. The result for `CCCc1ccc(C(=O)NNC(=O)c2ccc(Cl)cc2)cc1` reads 0.194; that for `COc1ccc(N2CCN(c3oc(Cc4ccccc4)nc3C#N)CC2)cc1`, 0.0944. `CCCCOCCCn1cnc2c([nH]c3cc(OC)ccc32)c1=O` had a z-score of 0.132. Turning to `Cc1ccc(N2C(S)=C(C#N)C(=O)NC23CCCCC3)cc1`, the z-score was -0.224. The result for `CCc1c(C)nc2c(C#N)c(C)[nH]n2c1=O` reads -0.653; that for `CCCCN(C)CCCNC(=O)C1CC(=O)N(Cc2ccc(OC)cc2)C1` (stereo not drawn), 0.757; that for `CCn1c(=O)n(CC(=O)NCc2ccco2)c(=O)c2ccccc21`, 0.656. Compound `COC(=O)c1cccc(S(=O)(=O)N2CCC(C)CC2)c1` returned a z-score of -0.157. The result for `Cc1cccc(NC(=O)CSc2nc3ccccc3o2)c1` reads 0.469.

Turning to `COc1ccc(CC(=O)NCc2cccs2)cc1OC`, the z-score is -0.413.

In turn, `O=[N+]([O-])c1ccc(-c2csc(N3CCc4ccccc4C3)n2)cc1` registered a z-score of -0.0911. The result for `COc1ccc(OCC(O)CN2CCN(c3ncccn3)CC2)cc1` (stereo not drawn) reads 0.164; that for `CCc1nnc(NC(=O)CC(CN(C)S(=O)(=O)c2ccccc2)c2ccccc2)s1` (stereo not drawn), -0.278; that for `CCc1cc(C(=O)OC)c(NC(=O)c2cc(Br)cs2)s1`, -0.143. As to `CC1(C)C(=O)C2(CCCCC2)C(=O)OC1c1cccn1-c1ccc([N+](=O)[O-])cc1` (stereo not drawn), the z-score is -0.14. In the case of `Cc1cnc(NC(=O)COc2cccc3c2OC(C)(C)C3)s1`, the z-score came to 0.713. With `Cc1cc(C)cc(-c2nnc(SCC(=O)c3ccc4c(c3)OCCO4)o2)c1`, the z-score is -0.266.

Regarding `CS(=O)(=O)N(CC(=O)N1CCN(c2cccc(Cl)c2)CC1)C1CCCCC1`, the z-score is -0.185. Take `CCCC(=O)c1ccc(N2CCCCCC2)c(F)c1`: the z-score was 0.339. As to `O=C(c1ccccc1)N1CCN(C2CC3CCC2C3)CC1` (stereo not drawn), the z-score is -0.439. As to `O=C1[C@H]2[C@@H](C(=O)N1c1cc(Cl)cc(Cl)c1)[C@]1(C(=O)Nc3ccccc31)N1CCC[C@@H]21`, the z-score was -0.354. `COCCn1c(SCC(=O)Nc2cc(C)on2)nnc1-c1c[nH]c2ccccc12` gave a z-score of -0.41. With `COc1ccc(C(=O)N2CCSC2=S)cc1OC`, the z-score was found to be 0.0858. `CCCC(=O)Nc1cccc(-c2cn3ccsc3n2)c1` registered a z-score of 0.345. `Cc1ccc(S(=O)(=O)N2CCN(C(=O)CCC(=O)NC3CCCc4ccccc43)CC2)cc1` (stereo not drawn) had a z-score of -0.0922. For `O=C(N/C(=C\c1ccco1)C(=O)N1CCCC1)c1cccs1`, the z-score was -0.372. As to `Cc1onc(-c2ccccc2Cl)c1C(=O)Nc1ccccc1`, the z-score was -0.373. With `CCOc1ccc(N/C=C/C(=O)c2ccc(OC)cc2)c([N+](=O)[O-])c1`, the z-score stood at 0.427.

`COc1ccc(/C=C2\CCCC3C2=NN(C(=O)c2scnc2C)C3c2ccc(OC)c(OC)c2)cc1OC` (stereo not drawn): the z-score is -0.0857. `O=C(c1ccccc1)N1CCN(C(=O)N2CCOCC2)CC1` yielded a z-score of -0.0151. `C=CCNc1nc2c3ccccc3n(C(C)=O)c2s1` registered a z-score of 0.0275. For the compound `COc1ccc(CC(=O)N2CCN(C(=O)Cc3ccc(OC)cc3)CC2)cc1`, the z-score is -0.234.

Take `O=C(COC(=O)CCCSc1nc2ccccc2[nH]1)Nc1cccc(F)c1`: the z-score was -0.826. For `CCN1C(=O)/C(=C/c2ccc(C)o2)N(C)C1=S`, the z-score is -0.0274. The compound `Cc1cc(NC(=O)NC(=O)c2cccc(OC(F)(F)C(F)F)c2)n[nH]1` displayed a z-score of -0.211. `COc1cc2cc(CN(CCO)S(=O)(=O)c3ccccc3)c(=O)[nH]c2cc1OC` came in with a z-score of -0.115. The result for `NC1=NC2(CCCCC2)N=C(Nc2ccc(Br)cc2)N1` reads 0.148.
